# Assay results published in PubChem BioAssay (NCATS).
# The shares of active, inactive and inconclusive entries below differ from those in the screen. For some assays here: A potency beside an inconclusive call is a rough fit, not a confirmed value. For some assays here: A note “side channel” means that the fit belongs to a control or component signal, not to the main read-out. The source made the active and inactive calls. Unless noted, calls come from the whole dose curve; as a rule, active = well fitted curve in the direction sought with a large enough effect; inconclusive = small, poorly fitted or top-dose-only effect, or another doubt; inactive = no such curve, though single readings can be large; an effect the other way counts as inactive or inconclusive.
# Experiments:
# [1] = qHTS Assay for Identification of Small Molecule Antagonists for NFkB Signaling Pathway. (AID 624479; calls by dose curve;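 note: pathway stimulated with TNF alpha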; note: potency is the fitted concentration of half-maximal effect)
# [2] = Cell Proliferation Assay against the TMD8 Cell Line (Caspase readout at 16 hrs) (AID 651712); note: potency is the fitted concentration of half-maximal effect
# Summary of the method: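 TMD8 cells in RPMI with 5% FBS were treated with compound for 16 h at 37 C, then caspase 3/7 activation was read by Caspase-Glo luminescence. Percent activity was scaled to DMSO (0%) and 9.2 uM bortezomib final (100%).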
# [3] = Cytotoxicity counterscreen for NFkB agonists and antagonists (AID 624476);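 note: cells exposed to compound for 48 hours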; note: potency is the fitted concentration of half-maximal effect
# [4] = Cell Proliferation Assay against the TMD8 Cell Line (Caspase readout at 8 hrs) (AID 651713); details: TMD8 lymphoma cells, caspase activation luminescence; caspase activation: at 46.1 µM (top of the series); note: potency is the fitted concentration of half-maximal effect;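 for caspase activation: 0% = DMSO and 100% = 9.2 µM bortezomib caspase signal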
# Summary of the method: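 TMD8 cells in RPMI plus 5% FBS were treated with compound for 8 h at 37C. Caspase 3/7 activation was read by Caspase-Glo luminescence. Percent activity was scaled from DMSO (0%) to 9.2 uM bortezomib final (100%).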
# [5] = qHTS Assay for Identification of Small Molecule Agonists for NFkB Signaling Pathway. (AID 624478); note: potency is the fitted concentration of half-maximal effect
# Summary of the method: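 NFkB-bla ME-180 cells carry a beta-lactamase reporter. They received compound plus TNF alpha at 10 pM final (its EC50) for 5 h at 37 C. Reporter activity was read as 460/530 nm emission ratio after 2 h LiveBLAzer substrate loading.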
# [6] = qHTS assay for small molecule agonists of the antioxidant response element (ARE) signaling pathway (AID 651741; active = well fitted activation curve with a large enough effect in the signal ratio; inconclusive = small, poorly fitted or top-dose-only effect, or effect the other way, or a change in a side signal; the % refers to the signal ratio; note: potency is the fitted concentration of half-maximal effect; for activation: % of control where 0% means no effect); details: HepG2 ARE-bla reporter, beta-lactamase FRET ratio, 16 h
# Summary of the method: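 CellSensor ARE-bla HepG2 cells (2,000/well) carrying ARE-driven beta-lactamase, exposed 16 h at 37 C. LiveBLAzer B/G FRET substrate added for 2 h at room temperature; fluorescence intensity read.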
# [7] = qHTS assay for small molecule activators of the p53 signaling pathway (AID 651743; active = well fitted activation curve with a large enough effect in the signal ratio, not every such curve was filed as active; inconclusive = small, poorly fitted or top-dose-only effect, or a change in a side signal; the % refers to the signal ratio; note: potency is the fitted concentration of half-maximal effect); details: HCT-116 p53RE-bla, beta-lactamase FRET ratio, 16 h
# Text: National Center for Advancing Translational Sciences [NCATS] NIH Chemical Genomics Center [NCGC] U.S. Environmental Protection Agency [EPA] National Institutes of Environmental Health Sciences [NIEHS] National Toxicology Program [NTP] Assay Overview: p53, a tumor suppressor protein, is activated following cellular insult, including DNA damage and other cellular stresses. The activation of p53 regulates cell fate by inducing DNA repair, cell cycle arrest, apoptosis, or cellular senescence. The activation of p53, therefore, is a good indicator of DNA damage and other cellular stresses. The CellSensor p53RE-bla HCT-116 cell line (Invitrogen) contains a stably integrated beta-lactamase reporter gene under control of the p53 response elements. The activation of the report gene under culture conditions can be detected by fluorescence intensity. This cell line can be used to screen chemicals in a 1536-well plate format and to identify agonists that activate p53 signaling pathway.
# Assay Protocol Summary: The p53RE-bla cells were dispensed at 4,000 cells/5 ul/well in 1536-well black wall/clear bottom plates using a Multidrop dispenser. […] After 1 uL of LiveBLAzer B/G FRET substrate was added using a Flying Reagent Dispenser, the plates were incubated at room temperature for 2 hours, and fluorescence intensity was measured by an Envision plate reader.
# [8] = qHTS assay for small molecule disruptors of the mitochondrial membrane potential - 1 hr assay (AID 651754; calls by dose curve; note: nearly all actives have a fitted effect of over 35% in size; note: potency is the fitted concentration of half-maximal effect; for ratio change, negative = depolarisation: % is set by controls: 0 for no effect and ±100 for the full control effect); details: ratio change, negative = depolarisation: at 92.2 µM (top of the series)
# Summary of the method: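 HepG2 cells, attached overnight, were exposed to compound for 1 hr at 37C, then stained 30 min with a potentiometric dye. Ratio of red aggregate (590nm) to green monomer (535nm) fluorescence reports membrane potential; collapse shifts signal toward green.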
# [9] = qHTS assay for small molecule activators of the nuclear factor-kappa B (NF-kB) signaling pathway (AID 651749; active = well fitted activation curve with a large enough effect in the signal ratio; inconclusive = small, poorly fitted or top-dose-only effect, or a change in a side signal; the % refers to the signal ratio; note: % of control where 0% means no effect); details: NF-kB-bla ME-180 cells, beta-lactamase FRET ratio, 16 h; active compounds read high
# Summary of the method: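 NF-kB-bla ME-180 cells carrying a beta-lactamase reporter under an NF-kB response element, 2,000 cells/well, exposed to compound for 16 hr at 37C; FRET-based beta-lactamase fluorescence read-out of pathway activation.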
# [10] = qHTS assay for small molecule disruptors of the mitochondrial membrane potential - 5 hr assay (AID 651755; calls by dose curve; note: % is set by controls: 0 for no effect and ±100 for the full control effect; nearly all actives have a fitted effect of over 40% in size); details: JC-1-type ratio dye; ratio change, negative = disruption: at 92.2 µM (top of the series)
# Summary of the method: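 HepG2 cells (2,000/well), attached overnight, exposed to compound 5 hr at 37C, then Mito-MPS dye 30 min. Fluorescence read for monomers (490/535 nm) and aggregates (540/590 nm).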
# [11] = activation: at 96 µM (top of the series)
# Tags give direction and shape of the fitted curve.
smiles,measurement,setting,value
COc1cc(OC2CCN(C)CC2)ccc1Nc1ncc2c(n1)n(C1CCCC1)c(=O)n2C,Potency,[1],"inconclusive: 9.43 µM [inhibitor, single point]"
same,Potency,[2],"inconclusive: 33.2 µM [activator, single point]"
CCn1c(-c2nonc2N)nc2c(C#CC(C)(C)O)ncc(OC[C@H]3CCCNC3)c21,Potency,[3],"inconclusive: 0.0372 µM [inhibitor, full curve]"
same,Potency,[1],"inconclusive: 16.8 µM [inhibitor, partial curve, poor fit]"
same,Potency,[2],"inconclusive: 26.4 µM [activator, single point]"
same,Potency,[4],"inconclusive: 14.8 µM [activator, partial curve]"
CN(C)CCCNC(=O)c1ccc(-c2cc(O)c3ncccc3c2)cc1,Potency,[3],"inconclusive: 37.2 µM [inhibitor, single point]"
same,Potency,[2],"inconclusive: 33.2 µM [activator, single point]"
C[C@]1(CO)CN(c2cc(C(=O)Nc3ccc4c(c3)-c3c(c(C(N)=O)nn3-c3ccc(F)cc3)CC4)c(Cl)cn2)C[C@@]1(C)CO,Potency,[3],inactive
same,Potency,[2],active: 14.8 µM
Cc1cn(-c2cc(NC(=O)c3ccc(C)c(Nc4nccc(-c5cccnc5)n4)c3)cc(C(F)(F)F)c2)cn1,Potency,[3],active: 9.35 µM
same,Potency,[2],"inconclusive: 8.33 µM [activator, single point]"
CC(c1cc2ccccc2s1)N(O)C(N)=O (stereo not drawn),Potency,[1],inactive
CC(=O)SC[C@@H](C)C(=O)N1CCC[C@H]1C(=O)N[C@@H](Cc1ccccc1)C(=O)O,Potency,[3],"inconclusive: 33.2 µM [inhibitor, single point]"
same,Potency,[2],inactive
CC(=O)NCCC(=O)N[C@@H](CCC(N)=O)C(=O)N[C@@H](CO)C(=O)N[C@@H](CCC(N)=O)C(=O)N[C@@H](CCC(N)=O)C(=O)N[C@H](C(=O)N[C@@H](Cc1ccccc1)C(=O)N[C@]1(C)CCCCCCC=CCCC[C@@](C)(C(=O)N[C@@H](CCC(N)=O)C(=O)N[C@@H](CC(N)=O)C(N)=O)NC(=O)[C@H](CC(C)C)NC(=O)[C@H](CC(C)C)NC(=O)[C@@H](CCCNC(=N)N)NC(=O)[C@H](Cc2c[nH]c3ccccc23)NC(=O)[C@H](CC(C)C)NC(=O)[C@H](CC(N)=O)NC1=O)[C@H](C)O,Potency,[3],"inconclusive: 33.2 µM [inhibitor, single point]"
same,Potency,[1],"inconclusive: 29.8 µM [inhibitor, single point]"
same,Potency,[4],"inconclusive: 33.2 µM [activator, single point]"
Cc1csc(-c2nnc(Nc3ccc(Oc4ncccc4-c4ccnc(N)n4)cc3)c3ccccc23)c1,Potency,[3],inactive
same,Potency,[2],active: 23.5 µM
O=C1[C@H](Cc2ccc(O)cc2)N2C(=O)CCN(C(=O)NCc3ccccc3)[C@H]2CN1Cc1cccc2ccccc12,Potency,[1],inactive
same,Potency,[2],active: 23.5 µM
Nc1nccc(-c2ccc3noc(-c4ccc(Cl)cc4)c3c2)n1,Potency,[3],inactive
same,Potency,[2],inactive
OCCn1cc(-c2ccc3c(c2)CCC3=NO)c(-c2ccncc2)n1,Potency,[1],inactive
C1=CCOCc2cc(ccc2OCCN2CCCC2)Nc2nccc(n2)-c2cccc(c2)OCC1,Potency,[3],"inconclusive: 2.96 µM [inhibitor, full curve]"
same,Potency,[4],"inconclusive: 1.66 µM [activator, full curve]"
Nc1cccc(S(=O)(=O)N2CCCN(S(=O)(=O)c3ccc4c(c3)OCCO4)CC2)c1,Potency,[1],"inconclusive: 26.6 µM [inhibitor, single point]"
same,Potency,[2],inactive
CCOc1ccn(-c2ccc(F)cc2)c(=O)c1C(=O)Nc1ccc(Oc2ccnc(N)c2Cl)c(F)c1,Potency,[3],"inconclusive: 18.7 µM [inhibitor, partial curve]"
same,Potency,[2],"inconclusive: 37.2 µM [activator, single point]"
same,Potency,[4],"inconclusive: 33.2 µM [activator, single point]"
Cc1ccc(C(=O)Nc2ccc(CN3CCN(C)CC3)c(C(F)(F)F)c2)cc1C#Cc1cnc2cccnn12,Potency,[5],"inconclusive: 26.4 µM [activator, single point]"
same,Potency,[2],active: 0.662 µM
CCCCCN(CCC12CC3CC(CC(C3)C1)C2)C(=O)NCCCc1ccncc1,Potency,[5],"inconclusive: 33.2 µM [activator, partial curve, poor fit]"
same,Potency,[2],"inconclusive: 8.33 µM [activator, full curve]"
CC(C)(N)C(=O)N[C@H](COCc1ccccc1)C(=O)N1CCC2(CC1)CN(S(C)(=O)=O)c1ccccc12,Potency,[4],inactive
COc1ccc(CCN2CCN(CCCc3ccccc3)CC2)cc1OC,Potency,[2],inactive
CCOc1cc2ncc(C#N)c(Nc3ccc(F)c(Cl)c3)c2cc1NC(=O)C=CCN(C)C,Potency,[2],"inconclusive: 2.35 µM [activator, partial curve]"
CCCCCCCc1ccc(CCc2cccc(O)c2C(=O)O)cc1,Potency,[1],"inconclusive: 29.8 µM [inhibitor, single point]"
same,Potency,[2],"inconclusive: 33.2 µM [activator, single point]"
CC(C)(O)CCc1ccc(OCc2cc(-c3cccc(OC(F)F)c3)c3ncccc3c2)cc1,Potency,[2],"inconclusive: 29.6 µM [activator, single point]"
CCCS(=O)(=O)Nc1ccc(F)c(C(=O)c2c[nH]c3ncc(Cl)cc23)c1F,Potency,[1],active: 11.9 µM
same,Potency,[2],"inconclusive: 33.2 µM [activator, single point]"
CC(C)(Sc1ccc(CCN(CCCCC2CCCCC2)C(=O)NC2CCCCC2)cc1)C(=O)O,Potency,[1],active: 21.1 µM
same,Potency,[6]; [11],"inconclusive: 48.6 µM [cytotoxic, side channel, partial curve]"
same,Potency,[7],"inconclusive: 14.1 µM [side channel, falling, full curve]"
COc1cccc2nc(-c3cccs3)nc(NN3C(=O)C=C(C)C3=O)c12,Potency,[2],"inconclusive: 0.0935 µM [activator, full curve, poor fit]"
same,Potency,[4],active: 0.166 µM
CCN(CC)CCOc1ccc(Nc2ncc3cc(-c4c(Cl)cccc4Cl)c(=O)n(C)c3n2)cc1,Potency,[2],"inconclusive: 0.148 µM [activator, full curve]"
S=P(N1CC1)(N1CC1)N1CC1,activation,[6]; [11],inconclusive: 11.4%
Fc1ccc(Cl)cc1-c1nc(Nc2ccncc2)c2nccnc2n1,Potency,[2],inactive
CN1CCN(c2ccc3nc(-c4c(N)c5c(F)cccc5[nH]c4=O)[nH]c3c2)CC1,Potency,[2],"inconclusive: 3.72 µM [activator, partial curve]"
O=C(O)[C@H](Cc1c[nH]c2ccccc12)N1C(=O)c2ccccc2C1=O,Potency,[2],inactive
CC[C@H](C)C(=O)O[C@H]1C[C@@H](C)C=C2C=C[C@H](C)[C@H](CC[C@@H]3C[C@@H](O)CC(=O)O3)[C@H]21,Potency,[6]; [11],"inconclusive: 75 µM [activator, partial curve, poor fit]"
same,Potency,[8],"inconclusive: 75 µM [inhibitor, partial curve, poor fit]"
O=c1ncn2nc(Sc3ccc(F)cc3F)ccc2c1-c1c(Cl)cccc1Cl,Potency,[2],"inconclusive: 23.5 µM [activator, single point]"
O=C(O)CCc1ccc(NCc2cccc(Oc3ccccc3)c2)cc1,Potency,[2],inactive
OC[C@@H](O)[C@@H](O)[C@H](O)[C@@H](O)CO,activation,[6]; [11],inconclusive: 9.46%
same,activation,[9],inactive: -0.0055%
CCOc1cc(C(=O)Nc2ccc(Cl)c(-c3nc4ccccc4[nH]3)c2)cc(OCC)c1OCC,Potency,[1],inactive
same,Potency,[2],inactive
COc1ccc(-c2ccc3c(N4CCOC[C@H]4C)nc(N4CCOC[C@H]4C)nc3n2)cc1CO,Potency,[2],"inconclusive: 23.5 µM [activator, partial curve, poor fit]"
same,Potency,[4],inactive
C[C@]12C=CC(=O)C=C1CC[C@@H]1[C@@H]2C(=O)C[C@@]2(C)[C@H]1CC[C@]2(O)C(=O)CO,Potency,[6]; [11],"inconclusive: 58 µM [activator, partial curve]"
same,Potency,[7],"inconclusive: 2.51 µM [side channel, falling, single point]"
same,Potency,[8],inactive
CC(C)[C@H](C(=O)Nc1ccc(C(=O)NO)cc1)c1ccccc1,Potency,[4],"inconclusive: 0.332 µM [activator, full curve, poor fit]"
CC(C)CC(=O)Nc1n[nH]c2c1CN(C(=O)C1CCN(C)CC1)C2(C)C,Potency,[2],"inconclusive: 0.59 µM [activator, full curve]"
Cc1n[nH]c(C)c1Cc1sc2c(c1C(=O)N1C[C@H](O)CO1)c(=O)n(C)c(=O)n2CC(C)C,Potency,[2],inactive
CN1CCN(c2cc(C(=O)Nc3ccc4c(c3)-c3c(c(C(N)=O)nn3-c3ccc(F)cc3)CC4)c(Cl)cn2)CC1,Potency,[1],"inconclusive: 11.9 µM [inhibitor, partial curve]"
same,Potency,[2],"inconclusive: 26.4 µM [activator, single point]"
COc1cc2ncnc(Nc3ccc(F)c(Cl)c3)c2cc1NC(=O)C=CCN1CCCCC1,Potency,[2],"inconclusive: 6.62 µM [activator, partial curve]"
CCc1cncnc1N1CCN(Cc2nc3ccc(C(F)(F)F)cc3[nH]2)CC1,Potency,[2],"inconclusive: 26.4 µM [activator, single point]"
COc1c2occc2cc2ccc(=O)oc12,activation,[6]; [11],inconclusive: 10.2%
same,activation,[6]; at 96 µM (top of the series),inactive: 9.44%
same,Potency,[8],inactive
Cc1cccc(Nc2nc(N[C@@H]3CCCC[C@H]3N)ncc2C(N)=O)c1,Potency,[1],"inconclusive: 26.6 µM [inhibitor, partial curve]"
same,Potency,[2],"inconclusive: 14.8 µM [activator, partial curve]"
CC1=NN(c2ccccc2)C(=O)C1,Potency,[6]; [11],"inconclusive: 75 µM [activator, partial curve]"
same,activation,[6]; [11],inconclusive: 18.9%
same,"ratio change, negative = depolarisation",[8],inconclusive: -17.1%
same,"ratio change, negative = disruption",[10],inconclusive: -25.5%
